This is one part of the list. At the low end of the ranking the order means little. The protein was read in a cell extract, so binding may be indirect.

The assay has as its target T1, HNF4alpha2 (COS-7 nuclear extract) (UniProt P41235).
T1 sequence: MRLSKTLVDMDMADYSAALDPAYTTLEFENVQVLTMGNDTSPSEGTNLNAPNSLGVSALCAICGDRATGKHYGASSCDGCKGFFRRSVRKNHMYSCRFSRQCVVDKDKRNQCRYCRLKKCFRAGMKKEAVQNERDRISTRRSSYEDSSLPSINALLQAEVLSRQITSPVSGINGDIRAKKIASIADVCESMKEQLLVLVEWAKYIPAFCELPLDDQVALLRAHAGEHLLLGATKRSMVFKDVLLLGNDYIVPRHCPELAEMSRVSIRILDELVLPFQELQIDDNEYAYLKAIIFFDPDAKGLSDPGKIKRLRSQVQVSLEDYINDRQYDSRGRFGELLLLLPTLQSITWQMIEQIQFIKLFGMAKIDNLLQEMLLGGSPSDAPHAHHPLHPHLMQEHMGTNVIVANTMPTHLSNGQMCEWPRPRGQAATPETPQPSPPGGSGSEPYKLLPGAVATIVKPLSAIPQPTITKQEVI
Description: protein-binding microarray. As to conditions: COS-7 nuclear extract on double-stranded Agilent 4x180k PBM; binding buffer, salt, pH and temperature not given; high values mean tight binding; double strand, one strand shown; sequences stand for … in …GCCTAGGGAGATTAGAGTATCGGTCGA
As for CGAACCTGTCTCCAGAGGACTTGCGGTGTT, the binding signal (log2 normalized intensity) came out at 0.482. In the case of GGACTCCCAAGATGGATTGGGTCCACACAT it was 1.63; in that of GCTGCGGTGGGCTCCACCCAGTTCGTGCTT, -1.11; in that of AGCCCTTAGGACCAGGGGGGGAATGCACAG, -1.17. The figure for TCCGAATTGGGGGAGGGTAGTCTATCTCAT is -0.541; for AGAGTGGACTCACAGCAGGAGGGCTTTCAC it is -1.19. For AGGGCAGATAACAAGGGCATGTAAAGGAGA, the binding signal (log2 normalized intensity) was -1.2. The figure for TCGCACTTCAGCACCATAAAGATAAGCAAG is -0.988; for TGAATATCTGGCAAATTTGCATTAGTGGAG it is 0.8; for CAGTAACTGTCATGGATGACCTCTTTTAGT it is 3.08.

Take GCAGACCTGCCAAAGTGTACCCTGTGCTTC: the binding signal (log2 normalized intensity) was 1.89. With TTAGCTTTCAGTGACTGCTCATTCTTGACC, the binding signal (log2 normalized intensity) came to 1.48. In the case of CTATGTCAGGCCATTTCACCTTTGCCCTGT it was 6.82.

As for AGTGCCTGCTTGCAGATAAAACATTTTTTT, the binding signal (log2 normalized intensity) is 0.513.

Regarding CGTCAGGAGGAAGCAGCGATGGAAGGGATG, the binding signal (log2 normalized intensity) is -1.19. In the case of TGGATCATGTGTCTGAGCAAGTTTCCTCCT it was -0.544. Turning to GCGCGTGGCCCAAGGCCTCTGACATAAATC, the binding signal (log2 normalized intensity) is -1.21. The figure for ACCCTGCTGTAGTGTGTAAGTATGCTCACT is 0.822; for AGAAATCTCCAAGTCAAACATTAGCCAGGA it is -1.11; for CTGTCCAGCAGACAATGGGAGACATTCCTT it is -1.14. The figure for CGCTCCCTGTGCCCACTTTCCTGGGCCGGG is -1.03; for TACACACCATAAGAGGCTCTAGATCTCAAA it is -0.982; for TCACCTGCTCATTGACCCTTAGGCCAAGGC it is 2.36. The figure for TCAGAAGCAGGTCAATAGGGCAGGGGGGAG is 0.12. In the case of AGTCTGGGAAGCTGTGTGAAGTGACTTGCC, the binding signal (log2 normalized intensity) was 0.0802. In the case of TGAGGCCGGAGGGCAGGCGGGCCGCCTTTC it was -1.14. The figure for TCTGTAAAAGCCAGCATTTCTGTGGACTGC is 1.41; for TTCTCCAGTCTATCAGACCAGCATTCTTTC it is -1.11.

For CTGAAGTCCCCTGTGCTTTGGCCAAATAAT, the binding signal (log2 normalized intensity) worked out at 1.34. The figure for TCTCTTGTGCTCATGACAAAGAAATGTAAC is 0.976. Turning to GTGTGGTGATGGCAGGAGTCAACAGGCAGA, the binding signal (log2 normalized intensity) was -0.402. In the case of CTGATAGAAAACGTTCACGTCTCAAGCTTC it was -1.08; in that of GCCGAGCCTGCAGGTGAATGGAAACAAGAG, -1.17. In the case of CCAATAGGTTTGATTTCAGCATGTTTAAAT it was 0.49. The figure for ATGGGTCCAAAGTTCTGAATGAGCAGACTG is 3.18; for AGAGGAGCATGGACTTCTGAGCTTGGCAAA it is -1.1. Regarding TTTCCAGTCTAAAATACCTGTTCTCCAGCT, the binding signal (log2 normalized intensity) was -1.13. On to GTTGTCTGTGACTGGGGTCAAACTCCACAT, for which the binding signal (log2 normalized intensity) came out at 5.65.

Take GACACCAAACACAGTTGCTGTCTAGAAAGA: the binding signal (log2 normalized intensity) was -1.01. In the case of TCAAGAGGATTACATAACCACCACTGGGCA it was -1.22; in that of CTGAAAAACAAAATGCATTTCCTTATTCTT, -1.15.

For TGTTTGGATGCCAAATTCCTCCCACTCTGA, the binding signal (log2 normalized intensity) stood at 0.284. For the sequence GGGCCTCAGAGAAAGCCTGTTTGCTTCTGC, the binding signal (log2 normalized intensity) was -1.26. Take TTTTAGAGATCAGGATACCAAGGCTCAGAG: the binding signal (log2 normalized intensity) was -0.851. For TGTTTCCAATAGGTTTGATTTCAGCATGTT, the binding signal (log2 normalized intensity) came to 1.59.

Consider GAGGGAAGGAGCCTAACTTTGATAGGCACA, for which the binding signal (log2 normalized intensity) was -1.05. In the case of AAGACCAAAGGTCATGGCAACAGTTTTCTG it was 3.93; in that of TAGACTATGCCAAACATTTCCTGCCTTTCA, -1.05. Consider TGCCCTTTGCCTCCCTGCATTCCATTTCTG, for which the binding signal (log2 normalized intensity) was 2.2. The figure for TAGCTGAGGGCGCTGTTGATGGGCAGCGCG is -1.11; for TTGAAGTCTGCCCTCCATGTAACCCCTTTT it is 3.71. For the sequence TCTTCCAGCGGGTGCTTAAAAGATAACAGT, the binding signal (log2 normalized intensity) worked out at 0.115.

In the case of TCTACAGGACAGCCAGGCAGTCGGGAAATT, the binding signal (log2 normalized intensity) is -1.03. In the case of AAAGGAGGCAAGGTCCAAACTTCTCCACTC it was 0.888; in that of CTGCTCTGGGCTTTCTCTGCCTCCATCCCT, 0.641; in that of TCCTTAGTGCATGGGAACTTCTCACCTTCA, -0.652. Consider GTATTTATCAACATTCTTTCTGATAATAGA, for which the binding signal (log2 normalized intensity) stood at 0.733. In the case of ACCTCAGAGAGCCGGAAACTCCACCTTCAG it was -1.13; in that of TGTGATCTACTCCCTGTTCTTACACCTGCT, -0.854; in that of CCTGCCAAAGTTATCAAGTTGCTTAAATTC, 0.931. The figure for TCCTAGAGTCCCTATTTGCTTGTGAATGAA is 0.734.

Regarding AATAAAATCTGGCAGCTTAAAAATGTTGAC, the binding signal (log2 normalized intensity) is -0.633. Regarding CTGCTTGTGAGACCGGTTCCGCGGTCCGCA, the binding signal (log2 normalized intensity) was -1.13. In the case of CCAGGCCTCCAGCTCTTTTGAACCCAAGGC it was 1.93. With TCGAGGCCAGGGATTAAAGAATTCGTCCAG, the binding signal (log2 normalized intensity) is -1.09. As to GTATTGCAAGTATTTCACCCCAGAGGCTAA, the binding signal (log2 normalized intensity) amounted to 2.18. The figure for TGAGTTCTTATCTAGGTAAGTATAGTGGGA is 1.51. The figure for TTAGATCAGAGGTCTAATTCCCAAGGGTAT is -0.435. In the case of CTTCTGTTTAAACTGATAACCTTGCCCAAC it was -0.676; in that of CTCAAGAAAGGATCTCACCCAAACCATCCC, 1.73; in that of CAGAAATGCCGCTAATGTATTTCGGGGCAC, 1.4. Consider GCATACAGGGTCCAAAGGTGTCAAGAACAT, for which the binding signal (log2 normalized intensity) stood at 3.15. In the case of TCTGGCATAGGAACAAAGGTTGGTGTGAAC it was 2.03.
